Source: PMC10707739

Tested on: P02185
Experiment: native gel or EMSA; blue native PAGE (BN-PAGE, 6-21% gradient gel, no denaturant in the gel) of amyloids (formed 24 h, 40 °C, pH 5.5, 5 mg/mL, 10 mM sodium phosphate) after 24 h incubation at 0-8 M urea, 20 °C, 0.5 mg/mL; band and lane intensities give the fractions of amyloid, ~1 MDa intermediate …

Row | Substance | [urea]1/2Agr-M (midpoint of the transition intermediate aggregates to monomer) | fraction of aggregates at 8 M urea (fAgr(8M urea))
1 | ApoMb L115A (no sequence given) | 5.6 M | 
2 | ApoMb L115F (no sequence given) | 5.7 M | is not zero and is in the range 0.15–0.5
3 | ApoMb M131A (no sequence given) | 4.8 M | 
4 | ApoMb M131W (no sequence given) | 5.1 M | 
5 | ApoMb V10A (no sequence given) | 4.8 M | 
6 | ApoMb V10F (no sequence given) | 5.8 M | 
